# Hit rate of the full screen: of about 39,000 compounds, about 220 (0.56%) showed activity. Some of the results follow.
# Tested on: Escherichia coli K-12 BW25113
# Assay: relative growth (OD600 normalised to plate interquartile mean) (fraction); higher = less growth inhibition, active = 0.2 or less
# Details: 50 µM; LB; incubation time: overnight (16-24 h)
# 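Also: static incubation at 37 °C against the wild-type strain, values averaged over two biological replicates.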
row,SMILES,relative growth
1,C[C@H](CO)N1C[C@H](C)[C@H](CN(C)Cc2ccccn2)Oc2ncc(C#Cc3cccc(F)c3)cc2C1=O,inactive: 0.98
2,C[C@@H]1CN([C@@H](C)CO)C(=O)c2cc(Br)cnc2O[C@H]1CN(C)S(=O)(=O)c1ccc(F)cc1,inactive: 1
3,C[C@H]1CCCCO[C@H](CN(C)C(=O)C2CCCCC2)[C@@H](C)CN([C@@H](C)CO)C(=O)c2cc(NS(=O)(=O)c3cccs3)ccc2O1,inactive: 1
4,Cc1ccc(S(=O)(=O)Nc2ccc3c(c2)C(=O)N([C@H](C)CO)C[C@@H](C)[C@H](CN(C)S(=O)(=O)c2ccc(F)cc2)O3)cc1,inactive: 1.01
5,C[C@@H]1CN([C@@H](C)CO)C(=O)CCCn2cc(nn2)CO[C@@H]1CN(C)C(=O)CCCN(C)C,inactive: 0.992
6,CSC1=NCN(CCCO)CN1,inactive: 1.01
7,CNc1ccccc1C(N)=O,inactive: 0.984
8,C[C@H](CO)N1C[C@H](C)[C@H](CN(C)CC2CC2)OCCCC[C@H](C)Oc2ccc(NC(=O)Nc3ccc4c(c3)OCO4)cc2C1=O,inactive: 0.969
9,C[C@@H]1CCCCO[C@H](CN(C)C(=O)Nc2ccc(C(F)(F)F)cc2)[C@@H](C)CN([C@@H](C)CO)C(=O)c2cc(NC(=O)Nc3cccc4ccccc34)ccc2O1,inactive: 1.02
10,Nc1cc(C(Cl)=C(Cl)Cl)c(S(N)(=O)=O)cc1S(N)(=O)=O,inactive: 1.14
11,COc1ccc(CN(C)C[C@@H]2OCCCC[C@@H](C)Oc3ccc(NC(=O)Nc4ccc(OC)cc4)cc3C(=O)N([C@H](C)CO)C[C@@H]2C)cc1,inactive: 0.925
12,C[C@@H]1CN([C@H](C)CO)C(=O)c2cc(NS(=O)(=O)c3ccc(F)cc3)ccc2O[C@H]1CN(C)Cc1ccncc1,inactive: 1.02
13,CO[C@H]1C[C@H](O[C@@H]2/C(C)=C/C[C@@H]3C[C@@H](C[C@]4(CC[C@H](C)[C@@H](C5CCCCC5)O4)O3)OC(=O)[C@@H]3C=C(C)/C(=N/O)[C@H]4OC/C(=C\C=C\[C@@H]2C)[C@]43O)O[C@@H](C)[C@@H]1O,inactive: 1.01
14,Cc1ccc(S(=O)(=O)Nc2ccc3c(c2)C(=O)N([C@H](C)CO)C[C@H](C)[C@H](CN(C)S(C)(=O)=O)O3)cc1,inactive: 1.01
15,C[C@@H]1CN([C@H](C)CO)C(=O)Cc2cc(NC(=O)CCN3CCOCC3)ccc2O[C@H]1CN(C)Cc1ccncc1,inactive: 0.991
16,COCC(=O)N1C[C@H](C)[C@H](OC)CN(C)C(=O)c2cc(NC(=O)c3ccc(F)cc3)ccc2OC[C@@H]1C,inactive: 0.986
17,C[C@H]1CN([C@@H](C)CO)C(=O)c2cc(NC(=O)Nc3ccccc3)ccc2O[C@H]1CN(C)Cc1ccc(Cl)c(Cl)c1,inactive: 0.986
18,COc1ccc(NC(=O)Nc2ccc3c(c2)C(=O)N([C@@H](C)CO)C[C@H](C)[C@H](CN(C)Cc2ccc4c(c2)OCO4)OCCCC[C@@H](C)O3)cc1,inactive: 1.01
19,COc1ccc(NC(=O)Nc2ccc3c(c2)[C@@H]2C[C@@H](CC(=O)N4CCN(C)CC4)O[C@@H](CO)[C@@H]2O3)cc1,inactive: 0.995
20,O=c1[nH]c2c(=O)nc[nH]c2nc1-c1ccccc1,inactive: 1
21,CCS(=O)(=O)N1C[C@]2(CN(Cc3cccc(c3)Cl)[C@@H](CO)c3c2c2ccc(cc2n3C)OC)C1,inactive: 1.02

row,SMILES,relative growth
1,CC(C)CC#Cc1ccc2c(c1)O[C@@H](CN(C)C(=O)C1CCOCC1)[C@@H](C)CN([C@H](C)CO)S2(=O)=O,inactive: 0.923
2,C1CNCCN1,inactive: 1.02
3,C[C@H](O)C#Cc1ccc2c(c1)O[C@@H](CN(C)C(=O)CN(C)C)[C@H](C)CN([C@@H](C)CO)S2(=O)=O,inactive: 1.01
4,C[C@H]1CN([C@@H](C)CO)C(=O)c2cc(NS(C)(=O)=O)ccc2O[C@H]1CN(C)Cc1ccc(C(=O)Nc2ccccc2N)cc1,inactive: 1.01
5,COc1ccc(S(=O)(=O)N(C)C[C@@H]2Oc3cc(C#CC4CCCC4)ccc3S(=O)(=O)N([C@@H](C)CO)C[C@H]2C)cc1,inactive: 1.05
6,C[C@@H]1CN([C@H](C)CO)C(=O)c2cc(NS(=O)(=O)c3ccc(Cl)cc3)ccc2O[C@@H](C)CCCCO[C@H]1CN(C)S(=O)(=O)c1ccc(F)cc1,inactive: 1.06
7,COC(=O)[C@H]1C2C(=O)N(C3CC3)C[C@]23C=C[C@H]1O3 (stereo partly drawn),inactive: 1.04
8,C[C@@H]1COC(=O)[C@@H](Cc2ccc(F)cc2)CCC=CC[C@@H](CC(=O)N[C@H](CO)Cc2ccccc2)C(=O)N1,inactive: 1.02
9,C[C@@H]1CN([C@H](C)CO)C(=O)Cc2cc(NS(=O)(=O)c3cn(C)cn3)ccc2O[C@H]1CN(C)S(C)(=O)=O,inactive: 0.878
10,C[C@@H]1CN([C@H](C)CO)C(=O)c2cc(NS(=O)(=O)c3cccs3)ccc2O[C@H]1CN(C)C(=O)Nc1cccc2ccccc12,inactive: 1.03
11,COc1ccc(cc1)NC(=O)N1CC[C@]2(CC1)CN([C@@H](CO)c1[nH]c3cc(ccc3c12)OC)C(=O)CN1CCOCC1,inactive: 1
12,C[C@H](CO)N1C[C@H](C)[C@H](CN(C)C(=O)Nc2ccc(C(F)(F)F)cc2)Oc2ccc(NC(=O)C3CCCCC3)cc2CC1=O,inactive: 0.993
13,C[C@H](CO)N1C[C@H](C)[C@@H](CN(C)C(=O)Nc2cccc3ccccc23)Oc2ccc(NC(=O)Nc3ccc4c(c3)OCO4)cc2C1=O,inactive: 0.957
14,Cn1cnc(S(=O)(=O)N2C[C@@H](O)COC[C@H]3O[C@H](CC(=O)NC4Cc5ccccc5C4)CC[C@@H]32)c1,inactive: 0.878
15,N[C@@H](CC(=O)N1CCn2c(nnc2C(F)(F)F)C1)Cc1[nH]nc2c(F)c(F)ccc12,inactive: 1.02
16,C[C@H](CO)N1C[C@H](C)[C@@H](CN(C)Cc2ccccc2)OCCCC[C@H](C)Oc2ccc(NS(=O)(=O)c3ccc(F)cc3)cc2C1=O,inactive: 1.03
17,CC(C)CC#Cc1ccc2c(c1)O[C@H](CN(C)C(=O)Cc1ccccn1)[C@@H](C)CN([C@@H](C)CO)S2(=O)=O,inactive: 1
18,NC(=O)c1cccc(Br)n1,inactive: 1
19,Cc1cc2nc3ccc(N(C)C)cc3[s+]c2cc1N.[Cl-],inactive: 1.1
20,C[C@H](CO)N1C[C@H](C)[C@@H](CN(C)Cc2ccc(C(=O)O)cc2)Oc2ccc(NC(=O)Nc3ccc(C(F)(F)F)cc3)cc2C1=O,inactive: 0.948
21,Cc1ccc(S[C@]2(C(=O)NCc3ccccc3)CC(=O)N(Cc3ccccc3Cl)[C@@H]2c2ccc(CO)cc2I)cc1,inactive: 1.01

row,SMILES,relative growth
1,CCS(=O)(=O)N1C[C@]2(CCN(CC2)C(=O)c2cccnc2)c2c(n(c3cc(ccc23)OC)C)[C@@H]1CO,inactive: 1.01
2,CO[C@H](C(=O)N(C)C[C@H]1OCc2ccccc2-c2c(n(C)c3ccccc23)C(=O)N([C@@H](C)CO)C[C@@H]1C)c1ccccc1,inactive: 0.994
3,C[C@@H]1CCCCO[C@@H](CN(C)Cc2ccccc2)[C@H](C)CN([C@@H](C)CO)C(=O)c2cc(NC(=O)Cc3ccccc3)ccc2O1,inactive: 0.991
4,C[C@@H]1CN([C@H](C)CO)C(=O)CCCn2nncc2CO[C@@H]1CN(C)S(=O)(=O)c1ccc2c(c1)OCCCO2,inactive: 1
5,CC12C=CC(=O)C=C1CCC1C2C(=O)CC2(C)C1CCC2(O)C(=O)CO (stereo not drawn),inactive: 1.02
6,COc1c2occc2c(OC)c2c(=O)cc(C)oc12,inactive: 1.09
7,Cc1ccc(S(=O)(=O)N(C)C[C@H]2Oc3c(NC(=O)c4cnccn4)cccc3C(=O)N([C@H](C)CO)C[C@H]2C)cc1,inactive: 0.987
8,C[C@@H]1CCCCO[C@H](CN(C)Cc2ccccc2)[C@@H](C)CN([C@@H](C)CO)C(=O)c2cc(NC(=O)NC3CCCCC3)ccc2O1,inactive: 0.91
9,Cn1sccc1=O,active: 0.0369
10,C[C@@H]1CCCCO[C@@H](CN(C)CC2CCCCC2)[C@@H](C)CN([C@@H](C)CO)C(=O)c2cc(NC(=O)Nc3ccc(F)cc3)ccc2O1,inactive: 1
11,COc1ccc(S(=O)(=O)N[C@@H]2C=C[C@H](CC(=O)N3CCC(Cc4ccccc4)CC3)O[C@H]2CO)cc1,inactive: 0.982
12,O=C(C[C@H]1CC[C@@H](NC(=O)c2ccc(F)cc2)[C@@H](CO)O1)NCc1ccncn1,inactive: 1.04
13,O=C(NCC(F)(F)F)[C@H]1[C@H](CO)[C@H]2Cn3c(cccc3=O)[C@@H]1N2C(=O)C1CCC1,inactive: 1.03
14,Cc1noc(C)c1S(=O)(=O)N(C)C[C@H]1OCCCC[C@H](C)Oc2ccc(NC(=O)Nc3cccc4ccccc34)cc2C(=O)N([C@H](C)CO)C[C@H]1C,inactive: 1.02
15,NC1CCC(O)CC1 (stereo not drawn),inactive: 1.07
16,CC(C)NC(=O)N(C)C[C@H]1Oc2c(NS(=O)(=O)c3ccc(Cl)cc3)cccc2C(=O)N([C@@H](C)CO)C[C@@H]1C,inactive: 1.03
17,C[C@H](CO)N1C[C@H](C)[C@H](CN(C)S(=O)(=O)c2cn(C)cn2)Oc2c(NC(=O)c3ccc(-c4nccs4)cc3)cccc2C1=O,inactive: 0.984
18,COc1ccc(S(=O)(=O)Nc2ccc3c(c2)C(=O)N([C@H](C)CO)C[C@@H](C)[C@@H](CN(C)S(C)(=O)=O)OCCCC[C@@H](C)O3)cc1,inactive: 0.996
19,O=c1oc2ccccc2c(O)c1Cc1c(O)c2ccccc2oc1=O,inactive: 0.939
20,COCC#Cc1ccc2c(c1)O[C@H](CN(C)C(=O)Nc1ccccc1F)[C@H](C)CN([C@@H](C)CO)S2(=O)=O,inactive: 0.976
21,C[C@@H]1CN([C@@H](C)CO)C(=O)c2c(c3ccccc3n2C)-c2ccccc2CO[C@H]1CN(C)Cc1cccc(O)c1,inactive: 0.905
